Patent US11633499B2, “Anti-TMEM-180 antibody, anticancer drug and cancer testing method” (NATIONAL CANCER CENTER JAPAN, priority 2016, dated 2023)

Assays:
[1] = system: normal tissues (skin, brain, small intestine, liver, heart, lung, kidney); assay: Immune histochemistry of normal human tissues; format: binding
Method: The paraffin sections were prepared from the tissue specimens in the same way as shown in Example 6 according to a routine procedure. The prepared sections were subjected to reactions with 1 μg/mL of one of the above antibodies. An HRP-labelled anti rat antibody was used as a secondary antibody, which emitted light with DAB. The observation was performed after hematoxylin staining.

[2] = target: T1, TMEM-180 on colon cancer cell DLD-1 line (Homo sapiens, UniProt Q14CX5); assay: Binding properties by flow cytometry, DLD-1 lines (TMEM-180 forced expression, parent, knockdown); conditions: primary antibody 1 μg/mL or 0.1 μg/mL; FIGS. 15 and 16
T1 construct: endogenous in cells; host or cells: DLD-1 parent line, TMEM-180 knockdown DLD-1 line, and DLD-1 line stably transfected with plasmid RC219636 (human TMEM180 cDNA)
T1 sequence (Q14CX5 1-517): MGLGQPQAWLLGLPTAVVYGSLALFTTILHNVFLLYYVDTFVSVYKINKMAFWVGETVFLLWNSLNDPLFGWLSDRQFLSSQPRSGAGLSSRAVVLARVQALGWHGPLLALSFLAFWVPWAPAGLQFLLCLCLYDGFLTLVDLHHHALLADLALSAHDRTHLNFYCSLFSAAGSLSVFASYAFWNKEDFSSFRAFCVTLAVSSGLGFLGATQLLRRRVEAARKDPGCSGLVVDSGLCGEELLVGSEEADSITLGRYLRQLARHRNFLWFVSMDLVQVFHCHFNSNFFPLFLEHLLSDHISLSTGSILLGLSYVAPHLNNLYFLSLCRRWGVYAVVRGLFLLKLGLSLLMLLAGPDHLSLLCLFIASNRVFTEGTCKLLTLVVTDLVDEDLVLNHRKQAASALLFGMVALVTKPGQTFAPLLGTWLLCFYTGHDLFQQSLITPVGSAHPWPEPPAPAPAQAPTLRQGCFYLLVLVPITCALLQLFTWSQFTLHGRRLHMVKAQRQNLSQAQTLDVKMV

K562 cells = assay: Binding properties by flow cytometry, K562 negative control; conditions: primary antibody 1 μg/mL or 0.1 μg/mL
Method: TMEM-180-forcibly expressed line of the colon cancer cell DLD-1 line, the parent line thereof, and the TMEM-180 knockdown line were cultured. […] K562 cells were used as a negative control.
The cancer cell lines to be subjected to the measurement were suspended in the medium, and then were added to a V-bottom, 96 well plate (corning) at 1×10^5 cells/well. After the plate was centrifuged at 440×g for 3 minutes at 4° C., the supernatant was removed and the antibody solution was added at 50 μL/well to the cell pellet, which was then suspended. The final concentration of the primary antibody was 1 μg/mL or 0.1 μg/mL. After reaction for 45 minutes on ice, the pellet was washed three times with 200 μg/well of 0.1% BSA/2 mM EDTA/PBS. After the supernatant was discarded, the secondary antibody was added at 50 μL/well to the cell pellet, which was then suspended. The ALEXAFLUOR 647@(fluorescent compound) Goat anti-Human IgG (H-L) (Life Technologies) diluted with 0.1% BSA/2 mM EDTA/PBS 400 times was used as a secondary antibody. After reaction for 45 minutes on ice, the cell pellet was washed three times with 0.1% BSA/2 mM EDTA/PBS 200 μL/well. […] The cells thus stained were measured with a flow cytometer such as Guava easyCyte 8HT (Merck Millipore). The obtained data were analyzed with FlowJO (TOMY Digital Biology).

normal stroma = assay: Reactivity to normal stroma; format: binding; conditions: compared with the 1361 antibody
wild type DLD-1 cells = assay: ADCC activity (51Cr release, TK176V effector cells), wild type DLD-1; format: cell-based, human; conditions: ET ratio 40; 4 hours; 0.064 to 1,000 ng/mL; FIGS. 20A to 20D
[3] = system: colon cancer tissue arrays; assay: Staining of colon cancer tissue array (immunohistochemistry); format: binding; conditions: tissues D8, B7 and B5; FIG. 17
From the text: The colon cancer tissue arrays were purchased from BioChain Institute Inc. (Newark, Calif.) and used in the experiment. Each tissue array was stained according to the manufacturer's manual.

B1: 1361-5 antibody: human chimera IgG1 variant of 1361 with Y78A in heavy chain CDR2; heavy chain SEQ ID NO: 180, light chain SEQ ID NO: 182 (antibody)
heavy: MDIRLSLVFLVLFIKGVQCEVQLVESGGGLVQPGRSLKLSCVASGFTFNNYWMTWIRQAPGKGLEWVASITNTGGSTAYPDSVKGRFTISRDYAKSTLYLQMNSLRSEDTATYYCTRAGYSSYPDYFDYWGQGVMLTVSS[human IgG1 constant region not shown]
light: MMAPVQLLGLLLLWLPAMRCNIQMTQSPSLLSASVGDRVTLSCKAGQNIYNYLAWYQQKLGEAPKLLIYNANSLQTGIPSRFSGSGSGTDFTLTISSLQPEDVATYFCQQYSSGWTFGGGTKLELKRTVAAPSVFIFPPSDEQLKSGTASVVCLLNNFYPREAKVQWKVDNALQSGNSQESVTEQDSKDSTYSLSSTLTLSKADYEKHKVYACEVTHQGLSSPVTKSFNRGEC
[1]; FIG. 13
  reactivity to normal skin tissues: does not recognize normal skin tissues
[1]; FIG. 14
  recognition of normal tissues besides skin: does not recognize normal tissues besides skin
[2]
  binding to DLD-1 cell line: binds to the surface; also recorded: recognized DLD-1 cell line in a TMEM-180 dependent manner
K562 cells
  recognition of K562 cells: did not recognize
Normal stroma
  reactivity to normal stroma: reduced reactivity to normal stroma
Wild type DLD-1 cells
  ADCC activity against wild type DLD-1 cells: stronger than that of cetuximab
[3]
  staining of colon cancer tissue array: well stains the tissues; also recorded: well stained

Entries after “also recorded” stand apart in the source; their conditions may differ.
